# This is one part of the list.
# B1: SSL (Salmo salar) (protein)
# chain: TGAKGAEEGVVPAETRNQCPTGWFQFGSRCFMFVETARSWPLAERHCVSLGANLASVHSSADDQFLQAIAGCKTGAFSTTWIGGFDAVQDRLWFWSDGSEFDYQNWAKGEPNNSGGREPCIVINWGDEYRWNDIKCGNSFPSVCSKRICEIQKN
# How the values were obtained:
# Assay in all cases: glycan array binding signal (z-score within array); higher = stronger binding
# Conditions in all cases: glycan notation: IUPAC condensed, linker removed
# [1] = target: Gal(b1-3)GalNAc(a1-3)[Fuc(a1-2)]Gal(b1-4)GlcNAc
# How it was run: (§1)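 From the Consortium for Functional Glycomics database, 3228 arrays were curated, keeping only those whose protein sequence was available. Binding is given as a within-array Z-score averaged across arrays sharing a protein sequence and across linkers. Negative Z-scores can be read as non-binding.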
# [2] = target: Gal(b1-3)GalNAc(b1-3)Gal(a1-4)Gal(b1-4)Glc
# How it was run: as §1
# [3] = target: Gal(b1-3)GalNAc(b1-4)Gal(b1-4)Glc
# How it was run: as §1
# [4] = target: Gal(b1-3)GalNAc(b1-4)[Neu5Ac(a2-3)]Gal(b1-4)Glc
# How it was run: as §1
# Gal(b1-3)GlcNAc = target: Gal(b1-3)GlcNAc
# How it was run: as §1
# [5] = target: Gal(b1-3)GlcNAc(a1-6)Gal(b1-4)GlcNAc
# How it was run: as §1
# [6] = target: Gal(b1-3)GlcNAc(b1-2)Man(a1-3)[Gal(b1-3)GlcNAc(b1-2)Man(a1-6)]Man(b1-4)GlcNAc(b1-4)GlcNAc
# How it was run: as §1
# [7] = target: Gal(b1-3)GlcNAc(b1-2)Man(a1-3)[Gal(b1-3)GlcNAc(b1-2)Man(a1-6)]Man(b1-4)GlcNAc(b1-4)[Fuc(a1-6)]GlcNAc
# How it was run: as §1
# [8] = target: Gal(b1-3)GlcNAc(b1-3)Gal(b1-3)GlcNAc
# How it was run: as §1
# [9] = target: Gal(b1-3)GlcNAc(b1-3)Gal(b1-4)Glc
# How it was run: as §1
# [10] = target: Gal(b1-3)GlcNAc(b1-3)Gal(b1-4)GlcNAc
# How it was run: as §1
# [11] = target: Gal(b1-3)GlcNAc(b1-3)Gal(b1-4)GlcNAc(b1-6)[Gal(b1-3)GlcNAc(b1-3)]Gal(b1-4)Glc
# How it was run: as §1
# [12] = target: Gal(b1-3)GlcNAc(b1-3)Gal(b1-4)[Fuc(a1-3)]GlcNAc(b1-6)[Gal(b1-3)GlcNAc(b1-3)]Gal(b1-4)Glc
# How it was run: as §1
# [13] = target: Gal(b1-3)GlcNAc(b1-3)GalNAc
# How it was run: as §1
# [14] = target: Gal(b1-3)GlcNAc(b1-6)Gal(b1-4)GlcNAc
# How it was run: as §1
# [15] = target: Gal(b1-3)[Fuc(a1-4)]GlcNAc
# How it was run: as §1
# [16] = target: Gal(b1-3)[Fuc(a1-4)]GlcNAc(b1-2)Man(a1-3)[Gal(b1-3)[Fuc(a1-4)]GlcNAc(b1-2)Man(a1-6)]Man(b1-4)GlcNAc(b1-4)GlcNAc
# How it was run: as §1
# [17] = target: Gal(b1-3)[Fuc(a1-4)]GlcNAc(b1-2)Man(a1-3)[Gal(b1-3)[Fuc(a1-4)]GlcNAc(b1-2)Man(a1-6)]Man(b1-4)GlcNAc(b1-4)[Fuc(a1-6)]GlcNAc
# How it was run: as §1
# [18] = target: Gal(b1-3)[Fuc(a1-4)]GlcNAc(b1-3)Gal(b1-3)[Fuc(a1-4)]GlcNAc
# How it was run: as §1
# [19] = target: Gal(b1-3)[Fuc(a1-4)]GlcNAc(b1-3)Gal(b1-4)GlcNAc
# How it was run: as §1
# [20] = target: Gal(b1-3)[Fuc(a1-4)]GlcNAc(b1-3)Gal(b1-4)[Fuc(a1-3)]GlcNAc
# How it was run: as §1
# [21] = target: Gal(b1-3)[GlcNAc(b1-6)]GalNAc
# How it was run: as §1
# [22] = target: Gal(b1-3)[Neu5Ac(a2-6)]GalNAc
# How it was run: as §1
# [23] = target: Gal(b1-3)[Neu5Ac(a2-6)]GlcNAc(b1-6)Gal(b1-4)Glc
# How it was run: as §1
# [24] = target: Gal(b1-3)[Neu5Ac(b2-6)]GalNAc
# How it was run: as §1
# [25] = target: Gal(b1-4)GalNAc(a1-3)[Fuc(a1-2)]Gal(b1-4)GlcNAc
# How it was run: as §1
# [26] = target: Gal(b1-4)GalNAc(b1-3)[Fuc(a1-2)]Gal(b1-4)GlcNAc
# How it was run: as §1
# Gal(b1-4)Glc = target: Gal(b1-4)Glc
# How it was run: as §1
# Gal(b1-4)Glc6S = target: Gal(b1-4)Glc6S
# How it was run: as §1
# Gal(b1-4)GlcNAc = target: Gal(b1-4)GlcNAc
# How it was run: as §1
# [27] = target: Gal(b1-4)GlcNAc(a1-6)Gal(b1-4)GlcNAc
# How it was run: as §1
# [28] = target: Gal(b1-4)GlcNAc(b1-2)Man(a1-3)Man(b1-4)GlcNAc(b1-4)GlcNAc
# How it was run: as §1
# [29] = target: Gal(b1-4)GlcNAc(b1-2)Man(a1-3)[Gal(b1-4)GlcNAc(b1-2)Man(a1-6)]Man(b1-4)GlcNAc(b1-4)GlcNAc
# How it was run: as §1
# [30] = target: Gal(b1-4)GlcNAc(b1-2)Man(a1-3)[Gal(b1-4)GlcNAc(b1-2)Man(a1-6)]Man(b1-4)GlcNAc(b1-4)[Fuc(a1-6)]GlcNAc
# How it was run: as §1
# [31] = target: Gal(b1-4)GlcNAc(b1-2)Man(a1-3)[GlcNAc(b1-2)Man(a1-6)]Man(b1-4)GlcNAc(b1-4)GlcNAc
# How it was run: as §1
# [32] = target: Gal(b1-4)GlcNAc(b1-2)Man(a1-3)[Man(a1-6)]Man(b1-4)GlcNAc(b1-4)GlcNAc
# How it was run: as §1
# [33] = target: Gal(b1-4)GlcNAc(b1-2)Man(a1-6)Man(b1-4)GlcNAc(b1-4)GlcNAc
# How it was run: as §1
# [34] = target: Gal(b1-4)GlcNAc(b1-2)Man(a1-6)[GlcNAc(b1-2)Man(a1-3)]Man(b1-4)GlcNAc(b1-4)GlcNAc
# How it was run: as §1
# [35] = target: Gal(b1-4)GlcNAc(b1-2)Man(a1-6)[Man(a1-3)]Man(b1-4)GlcNAc(b1-4)GlcNAc
# How it was run: as §1
# [36] = target: Gal(b1-4)GlcNAc(b1-2)[Gal(b1-4)GlcNAc(b1-4)]Man(a1-3)[Gal(b1-4)GlcNAc(b1-2)Man(a1-6)]Man(b1-4)GlcNAc(b1-4)GlcNAc
# How it was run: as §1
# [37] = target: Gal(b1-4)GlcNAc(b1-2)[Gal(b1-4)GlcNAc(b1-4)]Man(a1-3)[Gal(b1-4)GlcNAc(b1-2)[Gal(b1-4)GlcNAc(b1-6)]Man(a1-6)]Man(b1-4)GlcNAc(b1-4)GlcNAc
# How it was run: as §1
# [38] = target: Gal(b1-4)GlcNAc(b1-3)Gal(b1-3)GlcNAc
# How it was run: as §1
# [39] = target: Gal(b1-4)GlcNAc(b1-3)Gal(b1-4)Glc
# How it was run: as §1
# [40] = target: Gal(b1-4)GlcNAc(b1-3)Gal(b1-4)GlcNAc
# How it was run: as §1
# [41] = target: Gal(b1-4)GlcNAc(b1-3)Gal(b1-4)GlcNAc(b1-3)Gal(b1-4)GlcNAc
# How it was run: as §1
binder,measurement,setting,value
B1,glycan array binding signal (z-score),[1],-0.171
same,glycan array binding signal (z-score),[2],-0.11
same,glycan array binding signal (z-score),[3],-0.17
same,glycan array binding signal (z-score),[4],-0.142
same,glycan array binding signal (z-score),Gal(b1-3)GlcNAc,-0.157
same,glycan array binding signal (z-score),[5],-0.181
same,glycan array binding signal (z-score),[6],-0.171
same,glycan array binding signal (z-score),[7],-0.159
same,glycan array binding signal (z-score),[8],-0.179
same,glycan array binding signal (z-score),[9],-0.167
same,glycan array binding signal (z-score),[10],-0.183
same,glycan array binding signal (z-score),[11],0.451
same,glycan array binding signal (z-score),[12],-0.183
same,glycan array binding signal (z-score),[13],-0.165
same,glycan array binding signal (z-score),[14],-0.163
same,glycan array binding signal (z-score),[15],-0.145
same,glycan array binding signal (z-score),[16],-0.118
same,glycan array binding signal (z-score),[17],-0.123
same,glycan array binding signal (z-score),[18],-0.151
same,glycan array binding signal (z-score),[19],-0.167
same,glycan array binding signal (z-score),[20],-0.17
same,glycan array binding signal (z-score),[21],-0.16
same,glycan array binding signal (z-score),[22],-0.18
same,glycan array binding signal (z-score),[23],-0.167
same,glycan array binding signal (z-score),[24],-0.175
same,glycan array binding signal (z-score),[25],-0.174
same,glycan array binding signal (z-score),[26],-0.178
same,glycan array binding signal (z-score),Gal(b1-4)Glc,-0.172
same,glycan array binding signal (z-score),Gal(b1-4)Glc6S,-0.134
same,glycan array binding signal (z-score),Gal(b1-4)GlcNAc,-0.154
same,glycan array binding signal (z-score),[27],-0.168
same,glycan array binding signal (z-score),[28],-0.18
same,glycan array binding signal (z-score),[29],-0.167
same,glycan array binding signal (z-score),[30],-0.172
same,glycan array binding signal (z-score),[31],-0.179
same,glycan array binding signal (z-score),[32],-0.18
same,glycan array binding signal (z-score),[33],-0.17
same,glycan array binding signal (z-score),[34],-0.167
same,glycan array binding signal (z-score),[35],-0.163
same,glycan array binding signal (z-score),[36],-0.183
same,glycan array binding signal (z-score),[37],-0.182
same,glycan array binding signal (z-score),[38],-0.174
same,glycan array binding signal (z-score),[39],-0.166
same,glycan array binding signal (z-score),[40],-0.178
same,glycan array binding signal (z-score),[41],-0.182

# Source: the supplement of paper PMC8728848
